This is one part of the list. The list includes weakly bound sequences.

The target of the assay is T1, MBP-FoxP3dN (UniProt Q99JB6).
T1 sequence: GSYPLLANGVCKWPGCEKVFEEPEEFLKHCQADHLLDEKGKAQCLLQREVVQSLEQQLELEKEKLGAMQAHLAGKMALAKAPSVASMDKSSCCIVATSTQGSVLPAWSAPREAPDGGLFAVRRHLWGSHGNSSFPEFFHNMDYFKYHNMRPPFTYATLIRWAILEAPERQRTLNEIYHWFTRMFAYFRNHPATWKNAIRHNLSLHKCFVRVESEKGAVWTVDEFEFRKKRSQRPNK
The experiment in a line: PD-seq (MBP pull-down with sequencing). Conditions: 20 mM Tris-HCl pH 7.5, 100 mM NaCl, 1.5 mM MgCl2, 0.4 uM protein, 0.1 uM dsDNA library, 30 min, room temperature, amylose pull-down; high values mean tight binding; double strand, one strand shown.
With “GATGATTGTTCTCCCAGCTGATGAATTAGGGTCATCGAGTAAACAAATTTTCCTAATCTTTCTGTTCAAGCGCCATCTAC”, the binding signal (RPM ratio (pull-down/input)) was determined as 0.712.
As to “GATGATTGTTCTCCCAGCTGATGAATTGTTGTGTTCGAGTAAACAAATTTTCCTAATCTTTCTGTTCAAGCGCCATCTAC”, the binding signal (RPM ratio (pull-down/input)) worked out at 6.09.
In the case of “GATGATTGTTCTCCCAGCTGATGAATTCCATCCTTCGAGTAAACAAATTTTCCTAATCTTTCTGTTCAAGCGCCATCTAC”, the binding signal (RPM ratio (pull-down/input)) came out at 0.363.
The result for “GATGATTGTTCTCCCAGCTGATGAATTGCAGAGTTCGAGTAAACAAATTTTCCTAATCTTTCTGTTCAAGCGCCATCTAC” reads 0.781; that for “GATGATTGTTCTCCCAGCTGATGAATTTTGTGTGTCGAGTAAACAAATTTTCCTAATCTTTCTGTTCAAGCGCCATCTAC”, 5.59; that for “GATGATTGTTCTCCCAGCTGATGAATTCGCGGCCTCGAGTAAACAAATTTTCCTAATCTTTCTGTTCAAGCGCCATCTAC”, 0.442.
The result for “GATGATTGTTCTCCCAGCTGATGAATTTTGGATGTCGAGTAAACAAATTTTCCTAATCTTTCTGTTCAAGCGCCATCTAC” reads 0.589.
With “GATGATTGTTCTCCCAGCTGATGAATTAGTCGGATCGAGTAAACAAATTTTCCTAATCTTTCTGTTCAAGCGCCATCTAC”, the binding signal (RPM ratio (pull-down/input)) came out at 0.297.
As for “GATGATTGTTCTCCCAGCTGATGAATTCTACACATCGAGTAAACAAATTTTCCTAATCTTTCTGTTCAAGCGCCATCTAC”, the figure is 0.482.
As for “GATGATTGTTCTCCCAGCTGATGAATTGGAAAGATCGAGTAAACAAATTTTCCTAATCTTTCTGTTCAAGCGCCATCTAC”, the binding signal (RPM ratio (pull-down/input)) turned out to be 0.164.
The result for “GATGATTGTTCTCCCAGCTGATGAATTCCCCGAATCGAGTAAACAAATTTTCCTAATCTTTCTGTTCAAGCGCCATCTAC” reads 0.178.
As for “GATGATTGTTCTCCCAGCTGATGAATTCTGGACTTCGAGTAAACAAATTTTCCTAATCTTTCTGTTCAAGCGCCATCTAC”, the figure is 0.344; as for “GATGATTGTTCTCCCAGCTGATGAATTTTTCATTTCGAGTAAACAAATTTTCCTAATCTTTCTGTTCAAGCGCCATCTAC”, 0.293; as for “GATGATTGTTCTCCCAGCTGATGAATTCTGAGCGTCGAGTAAACAAATTTTCCTAATCTTTCTGTTCAAGCGCCATCTAC”, 0.457.
The result for “GATGATTGTTCTCCCAGCTGATGAATTCACAGAATCGAGTAAACAAATTTTCCTAATCTTTCTGTTCAAGCGCCATCTAC” reads 0.192; that for “GATGATTGTTCTCCCAGCTGATGAATTGTGTTAATCGAGTAAACAAATTTTCCTAATCTTTCTGTTCAAGCGCCATCTAC”, 1.66.
Take “GATGATTGTTCTCCCAGCTGATGAATTGTAATCATCGAGTAAACAAATTTTCCTAATCTTTCTGTTCAAGCGCCATCTAC”: the binding signal (RPM ratio (pull-down/input)) stood at 1.66.
With “GATGATTGTTCTCCCAGCTGATGAATTGGGCGGGTCGAGTAAACAAATTTTCCTAATCTTTCTGTTCAAGCGCCATCTAC”, the binding signal (RPM ratio (pull-down/input)) is 0.476.

The values above are taken from publication PMC12820563.
